# PubChem BioAssay AID652104 (National Center for Advancing Translational Sciences (NCATS), 2013)
# The whole screen tested about 410,000 compounds, of which about 7,200 (1.8%) were called active. Inconclusive results, whose numbers are uncertain, are shown with a selection of clear calls. Calls come from the whole dose curve; as a rule, active = well fitted activation curve with a large enough effect; inconclusive = small, poorly fitted or top-dose-only effect, or another doubt; inactive = no such curve, though single readings can be large or run the other way. No potency is given beside an inconclusive call; the fits are too rough.
# Test: qHTS of TDP-43 Inhibitors; note: nearly all actives have a fitted effect of over 50% in size; for growth rescue (activation): % of control where 0% means no effect
# Conditions: TDP-43 expressing yeast growth rescue, BacTiter-Glo, 24 h; growth rescue (activation): at 46.1 µM (top of the series) unless noted
# Method in brief: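 Growth rescue of TDP-43-toxic yeast measured as ATP luminescence (BacTiter-Glo). Cells grown to mid-log in raffinose, induced in galactose at OD600=0.02, exposed to compound 24 hr at 30 deg C.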
# Potency is the fitted concentration of half-maximal effect; tags give direction and shape of the fitted curve.
SMILES,Potency,growth rescue (activation)
Cc1cc(C)nc(Nc2ccc(C)c([N+](=O)[O-])c2)n1,active: 20 µM,–
CCOC(=O)CNC(c1ccccc1)c1cc(Br)ccc1NC(=O)c1cccc(Cl)c1 (stereo not drawn),"inconclusive [activator, partial curve, poor fit]",–
O=C(CSc1nc(=O)n(Cc2ccco2)c2c1CCC2)Nc1ccccc1C(F)(F)F,–,inactive: 20.3%
Nc1cccc2cc(-c3ccccc3)oc12,"inconclusive [activator, partial curve]",–
CC1(S(=O)(=O)O)CC(=O)c2ccccc2C1=O (stereo not drawn),–,inactive: 25.6%
Cc1ccc(C(=O)C(c2ccccc2)N2Cc3ccccc3C2=N)cc1 (stereo not drawn),"inconclusive [activator, partial curve]",–
Cc1ccc(C)c(Oc2nc3c(c(=O)n(C)c(=O)n3C)n2Cc2ccccc2)c1,"inconclusive [activator, partial curve]",–
O=C(OCCOCCN=C1NS(=O)(=O)c2ccccc21)c1ccccc1,–,inactive: -6.26%
CCC(=O)c1ccc(N2CCN(C(=O)COc3ccccc3F)CC2)c(F)c1,"inconclusive [activator, single point]",–
COc1cccc(NC(=O)Cn2c(-c3cncs3)nc3ccccc32)c1,"inconclusive [activator, single point]",–
O=C(Oc1cccc(Nc2ncnc3ccccc23)c1)c1ccccc1Cl,"inconclusive [activator, single point]",–
COc1cccc(COc2ncnc3sccc23)c1,"inconclusive [activator, single point]",–
N/C(=N\N=C/c1ccc(Br)cc1)N/N=C\c1ccc(Br)cc1,"inconclusive [activator, single point]",–
CC(=O)Nc1cc(-c2cccc(C(=O)NCCN(C)C)c2)cn2c(-c3ccccc3)cnc12,–,inactive: -4.76%
COc1cc(Cl)c(C)cc1NC(=O)CSC1=NCCS1,"inconclusive [activator, single point]",–
Cc1nc2ccccc2c2oc(C(=O)NCC3COc4ccccc4O3)cc12 (stereo not drawn),"inconclusive [activator, single point]",–
O=C(COc1ccc(Cl)cc1)NCCSCc1ccccc1Cl,active: 25.1 µM,–
COc1cccc(CC(=NO)c2cccc(OC)c2)c1,"inconclusive [activator, single point]",–
COc1cccc(CNC(=S)Nc2ccc3c(c2)c(=O)n(C)n3Cc2ccccc2)c1,"inconclusive [activator, full curve, poor fit]",–
O=C(COC(=O)c1ccccc1C(=O)c1ccccc1)Nc1cccc([N+](=O)[O-])c1,"inconclusive [activator, partial curve]",–
CCCCn1c(=O)c2oc3ccccc3c2n(Cc2ccccc2C)c1=O,–,inactive: 27.5%
O=C1c2ccccc2NC(c2c(Cl)cccc2Cl)N1Cc1ccccc1 (stereo not drawn),active: 25.1 µM,–
COc1ccc(N2CCN(C(=O)C3CCN(S(=O)(=O)c4ccc(F)cc4)CC3)CC2)cc1,"inconclusive [activator, single point]",–

SMILES,Potency,growth rescue (activation)
COc1cc(-c2nc(C(=O)NC3CCCCC3)cc3c2[nH]c2ccccc23)cc(OC)c1OC,"inconclusive [activator, partial curve]",–
CC(=O)Nc1cccc(NC(=O)c2cccc3cccnc23)c1,"inconclusive [activator, single point]",–
CNC(=S)NN=C(C)CCCC(C)=NNC(=S)NC,"inconclusive [activator, partial curve]",–
COC(=O)c1ccc(CSc2nc(C(F)F)cc(C)c2C#N)o1,active: 11.2 µM,–
O=[N+]([O-])c1cccc(/C=C/C=N/Nc2nc(N3CCCCC3)nc(N3CCCCC3)n2)c1,"inconclusive [activator, partial curve]",–
O=C(NNC(=S)Nc1ccccc1Cl)c1ccccc1Cl,"inconclusive [activator, full curve]",–
COc1ccc(Cl)cc1C(=O)NCc1nnnn1-c1ccccc1,"inconclusive [activator, single point]",–
COc1ccc(C(=O)N=c2sc3c(C)ccc(OC)c3n2C)cc1,"inconclusive [activator, full curve]",–
COc1nnc(-c2ccc(N3CCCCC3)c(NC(=O)c3ccccc3Cl)c2)c2ccccc12,"inconclusive [activator, partial curve]",–
N#CC(c1ccccc1O)N1N=C(c2ccccc2)CC1c1ccccc1 (stereo not drawn),"inconclusive [activator, single point]",–
COc1ccc(CCNc2cc(C)nc3c(-c4ccc(Cl)cc4)c(C)nn23)cc1OC,active: 20 µM,–
CCOc1ccc(C(C(=O)NCCC(C)C)N(CCO)C(=O)c2snc(C(N)=O)c2N)cc1 (stereo not drawn),–,inactive: -10.2%
O=C(Nc1cccc(F)c1)c1c(F)c(F)c(F)c(F)c1F,"inconclusive [activator, single point]",–
O=C(CSc1c2c(nc3cc(Cl)ccc13)CCCC2)N1CCN(c2ccccc2)CC1,active: 20 µM,–
Cc1ccc(OCc2nc(-c3ccccn3)no2)c(Br)c1,"inconclusive [activator, partial curve]",–
CCOC(=O)c1noc2ncnc(N3CCN(c4cccc(C(F)(F)F)c4)CC3)c12,"inconclusive [activator, single point]",–
O=c1c2c3c(sc2ncn1/N=C/c1ccc([N+](=O)[O-])o1)CCCC3,–,inconclusive: -91.6% [activator]
CCOC(=O)C1(C)CCN1C(=O)c1ccc(C#N)cc1 (stereo not drawn),"inconclusive [activator, full curve, poor fit]",–
Clc1ccc(-c2cc3ccccc3[nH]2)cc1,active: 10 µM,–
O=C(CSC1=NCCS1)N1N=C(c2cccs2)CC1c1ccc(F)cc1 (stereo not drawn),"inconclusive [activator, partial curve]",–
O=C(c1ccco1)N(Cc1ccc([N+](=O)[O-])cc1)c1ccc(Cl)cc1,active: 22.4 µM,–
Cc1nc2scc(C)n2c(=O)c1S(=O)(=O)Nc1ccc(OC(F)(F)F)cc1,"inconclusive [activator, single point]",–
Cc1ccc(NC(=O)CSCC(=O)N(C)Cc2ccc(Cl)c(Cl)c2)cc1,"inconclusive [activator, partial curve, poor fit]",–

SMILES,Potency,growth rescue (activation)
CC(=O)c1cc(NC(=O)c2cccc(C(F)(F)F)c2)c(=O)oc1C,"inconclusive [activator, single point]",–
O=C(O)CCn1c2c(c3ccccc31)CCCC2,"inconclusive [activator, single point]",–
O=C1c2ccccc2C(=O)N1CCCCSc1nnc(-c2ccc(OC(F)F)cc2)o1,"inconclusive [activator, partial curve, poor fit]",–
CCN(CC)C(=O)OCc1c(-c2cccc(OC)c2)ncc2ccccc12,active: 11.2 µM,–
CCOC1=C2[C@H](c3ccccc3Cl)N(S(=O)(=O)c3ccc(C)cc3)C[C@H]2C(C#N)(C#N)C(C#N)(C#N)C1,"inconclusive [activator, partial curve]",–
O=C(NCc1ccc2c(c1)OCO2)c1ccc2snnc2c1,"inconclusive [activator, single point]",–
CCOC(=O)N(C)c1c(CC)nc2c(OCc3ccc(Cl)cc3)cccn12,"inconclusive [activator, partial curve, poor fit]",–
O=c1c2ccccc2ccc2ccccc12,"inconclusive [activator, partial curve]",–
CCOc1ccc(C(=O)N(Cc2nc(-c3cccc(C)c3)no2)C(C)C)cc1,"inconclusive [activator, single point]",–
Cc1onc(-c2ccccc2)c1C(=O)OCCOc1ccccc1F,"inconclusive [activator, partial curve, poor fit]",–
O=C(CN1C(=O)COc2ccccc21)c1ccc(Cl)cc1,"inconclusive [activator, single point]",–
COc1ccc(OCC(=O)N2CCC(Cc3ccccc3)CC2)cc1,"inconclusive [activator, partial curve]",–
COc1ccc(/C=N/Nc2nc(C)nc(N)n2)cc1,"inconclusive [activator, full curve]",–
COc1ccc(OC2CCN(S(=O)(=O)c3ccccc3)CC2)cc1,"inconclusive [activator, partial curve]",–
COc1ccc(-c2nnnn2-c2ccc(F)cc2F)cc1,"inconclusive [activator, single point]",–
COc1ccc(OC)c(NC(=O)C2CCCCC2C(=O)O)c1 (stereo not drawn),–,inactive: -2.56%
O=C(Nc1cccc(-c2nnco2)c1)c1cccs1,–,inactive: 14%
Clc1c(-c2nnc3n2CCCCC3)sc2ccccc12,"inconclusive [activator, single point]",–
Cc1cc(F)ccc1S(=O)(=O)Nc1nc2ccccc2nc1Cl,"inconclusive [activator, single point]",–
Oc1c(Br)cc(Br)c(/C=N/n2c(-c3ccccc3)n[nH]c2=S)c1Br,–,inconclusive: 31.9% [activator]
CC(Sc1nnnn1-c1ccccc1)C(=O)Nc1ccccc1-c1ccccc1 (stereo not drawn),"inconclusive [activator, single point]",–
CCOC(=O)c1oc2cc(O)cc(C)c2c1C,"inconclusive [activator, full curve, poor fit]",–
